Experimental data published in PubChem BioAssay AID662 (National Center for Advancing Translational Sciences (NCATS), 2007).
Among all 71,000 compounds or so, about 1,800 (2.5%) were called active. The inconclusive results got no clear call from the source; some entries with a clear call stand among them for comparison. Calls come from the whole dose curve; as a rule, active = well fitted activation curve with a large enough effect in the signal ratio, with a control signal flat (not every such curve was filed as active); inconclusive = small, poorly fitted or top-dose-only effect, or effect the other way, or a change in a side signal; inactive = flat fitted curve, though single readings scatter; the % refers to the signal ratio. A potency beside an inconclusive call is a rough fit, not a confirmed value.
Potency is the fitted concentration of half-maximal effect; tags give direction and shape of the fitted curve.

Experiment: Cell signaling CRE-BLA (Fsk stim); for activity change, negative = inhibition: % of control where 0% means no effect
Conditions: CHO CRE-bla reporter (cAMP response element driving beta-lactamase), forskolin EC10, beta-lactamase ratio; activity change, negative = inhibition: at 38.2 µM (top of the series) unless noted
In short: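 Reporter-gene assay: CHO cells with beta-lactamase behind cAMP responsive elements, co-treated with compound and EC10 NKH 477 for 3 hours at 37 degrees Celsius. Activity came from the 460/530 nm CCF4 emission ratio.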
For c1ccc2c(N3CCNCC3)nc(-c3ccc4c(c3)OCO4)nc2c1, the activity change, negative = inhibition was inconclusive: 18.6%. With Cc1cc(C(=O)NCCCN2CCCC2=O)no1 the activity change, negative = inhibition was “inactive”. In the case of COCCOC(=O)c1[nH]c2c(c1C)C(=O)CC(c1ccccc1)C2 (centres undefined), the Potency is reported as inconclusive: 6.31 µM [rising, partial curve]. With CN(CCC#N)c1ncnc2scc(-c3ccccc3)c12 the Potency was inconclusive: 10 µM [rising, single point]. For Cc1cc(C)c(C#N)c(N2CCN(CCOc3ccc(Cl)cc3)CC2)n1, the activity change, negative = inhibition was inconclusive: -27.8%. In the case of N#Cc1ccccc1Cn1c(=O)n(CCC(=O)NCc2ccco2)c(=O)c2ccccc21, the activity change, negative = inhibition is reported as inconclusive: 23.1%. For CN(Cc1ccccc1)c1nc2c(c(=O)[nH]c(=O)n2C)n1CCCc1ccccc1, the activity change, negative = inhibition was inconclusive: -16.8%. With COc1ccc(CCNC2=NCCS2)cc1 the activity change, negative = inhibition was “inactive”. With CCOC(=O)c1ccc(Nc2cc(C)nc3nc(C)nn23)cc1 the Potency was inconclusive: 3.98 µM [rising, partial curve]. With COc1ccc(OC)c(-c2cc(C(=O)Nc3cccc(Cl)c3)no2)c1 the Potency was inconclusive: 2.51 µM [rising, single point]. For COc1ccc(CNC(=O)c2c(O)c3ccccc3n(C)c2=O)cc1OC, the Potency was inconclusive: 0.794 µM [rising, full curve, poor fit]. With COC(=O)c1ccccc1NC(=O)c1sc(=S)n(C)c1N the activity change, negative = inhibition was inconclusive: 20.2%. With N#Cc1cc2c(nc1SCc1nc3ccccc3[nH]1)CCC2 the Potency was inconclusive: 10 µM [rising, partial curve]. With O=c1[nH][nH]c(=S)c(=O)[nH]1 the activity change, negative = inhibition was inactive: 9.43% [at 7.6 µM]. For S=C(S)N1CCCC1, the activity change, negative = inhibition was inconclusive: -5.69%. In the case of Cc1ccccc1/C=C\C1=NCCN1, the activity change, negative = inhibition is reported as “inactive”. With Cc1ccnc(N(C(=O)c2cccs2)C(=O)c2cccs2)c1 the activity change, negative = inhibition was “inactive”. With COc1ccc(NC(=O)C2CCCN(c3c4c(nc5ncnn35)CCC4)C2)cc1OC (centres undefined) the activity change, negative = inhibition was inconclusive: 24.5%. With CCOc1ccc(OCC)c(NC(=O)C2CCCN2S(=O)(=O)c2cccc3cccnc23)c1 (centres undefined) the activity change, negative = inhibition was inconclusive: 20.9%. For COc1ccc2[nH]cc(CCNc3ncncc3-c3cccc(C#N)c3)c2c1, the activity change, negative = inhibition was “inactive”. For CCCCn1c(=O)n(CC(O)c2ccccc2)c(=O)c2c1ncn2C1CCCC1 (centres undefined), the activity change, negative = inhibition was inconclusive: 9.26%. With Cc1ccc2cc3cc(C(=O)NCCCN4CCc5ccccc5C4)oc3nc2c1 the Potency was inconclusive: 0.0316 µM [falling, full curve]. For COc1c(C)cccc1C(=O)Nc1cc(Cl)ccc1N1CCOCC1, the activity change, negative = inhibition was “inactive”. For CCOC(=O)CSc1ncnc2c1cnn2-c1ccc(C)cc1, the activity change, negative = inhibition was “inactive”. With Cc1ccc(N2CC(C(=O)N3CCN(c4ccccc4)CC3)CC2=O)cc1 (centres undefined) the Potency was inconclusive: 5.01 µM [rising, single point]. For N=C1C(c2ccccc2)=C(O)C2CCc3ccccc3N12 (centres undefined), the activity change, negative = inhibition was inconclusive: -24.7%. With CCOc1ccc(Nc2oc(-c3cccs3)nc2C#N)cc1 the Potency was active: 12.6 µM. With O=C(NCc1n[nH]c(=S)n1-c1ccccc1)c1ccc(S(=O)(=O)N2CCOCC2)cc1 the activity change, negative = inhibition was inconclusive: 7.26%. In the case of Cc1ccc(NC(=O)Cn2cnc3c(=O)n(C)c(=O)n(C)c32)c(C)c1, the activity change, negative = inhibition is reported as “inactive”. In the case of N#Cc1ccc(NC(=O)N2CCC(c3nc4c(nnn4Cc4cccc(Cl)c4)c(=O)[nH]3)CC2)cc1, the activity change, negative = inhibition is reported as inconclusive: 29.7%. For CCS(=O)(=O)N1CCCC(C(=O)NCc2cccc(OC)c2)C1 (centres undefined), the activity change, negative = inhibition was “inactive”. With N[C@@H](Cc1nn[nH]n1)C(=O)O the activity change, negative = inhibition was inactive: -1.04% [at 7.6 µM]. For COC(=O)Nc1ncc(CN2C(=O)c3ccccc3C2=O)s1, the Potency was inconclusive: 12.6 µM [rising, partial curve]. In the case of COc1ccc(NC(=O)CN(c2cccc(F)c2)S(C)(=O)=O)cc1OC, the Potency is reported as inconclusive: 12.6 µM [rising, single point]. In the case of CN(C)C(=O)c1ccc(-c2ccc3ncnc(Nc4ccc(F)cc4)c3c2)cc1, the Potency is reported as inconclusive: 10 µM [rising, partial curve]. For COC(=O)C1=C(C)NC(C)=C(C(=O)OCCN(C)Cc2ccccc2)[C@@H]1c1cccc([N+](=O)[O-])c1, the activity change, negative = inhibition was “inactive”. In the case of COc1cc(C2C(C#N)=C(N)Oc3cc(C)oc(=O)c32)cc2c1OCO2 (centres undefined), the activity change, negative = inhibition is reported as “inactive”. For CN1CCN(c2ncc3nc(CCc4ccccc4)c(=O)n(CCC#N)c3n2)CC1, the activity change, negative = inhibition was “inactive”. With CCOC(=O)c1c(C)[nH]c(C=Nc2ccccc2)c1O the activity change, negative = inhibition was inconclusive: 24.5%. For O=C(c1cnccn1)N1CCC2(CCCN(C(c3ccccc3)c3ccccc3)C2)CC1, the Potency was inconclusive: 12.6 µM [rising, single point]. With Nc1cccc(-n2nncc2-c2ccccc2)c1 the activity change, negative = inhibition was inconclusive: 14.2%. For CCNc1ncc2nc(-c3ccc(OC)cc3)c(=O)n(CCc3ccccc3)c2n1, the Potency was inconclusive: 1 µM [rising, full curve]. For CC(C)(C#N)Nc1ccccc1, the activity change, negative = inhibition was inconclusive: -7.29%. For C=CCn1c(NC(C)c2cc(Cl)ccc2O)nc2ccccc21 (centres undefined), the activity change, negative = inhibition was inconclusive: -22.3%. For N#CC1=C(N)Oc2c(sc3ccccc23)C1c1ccco1 (centres undefined), the Potency was inconclusive: 0.316 µM [rising, partial curve, poor fit]. With O=C(/C=C\c1ccc(O)cc1)c1ccc(O)cc1O the activity change, negative = inhibition was inconclusive: -28.6%. In the case of COc1ccc(N(CC(=O)Nc2cc(OC)ccc2OC)S(=O)(=O)c2c(C)nn(C)c2C)cc1, the Potency is reported as active: 5.01 µM. In the case of Cc1ccccc1N(CC(=O)NCCSCc1ccco1)S(C)(=O)=O, the Potency is reported as inconclusive: 5.01 µM [falling, single point]. With Cc1cc(Nc2ccccc2N2CCOCC2)n2ncnc2n1 the Potency was inconclusive: 20 µM [rising, single point]. In the case of COc1ccc(N2CCN(C(=O)CSc3ncnc4c3cnn4-c3ccc(OC)cc3)CC2)cc1, the activity change, negative = inhibition is reported as “inactive”. For c1ccc(-c2onc3cc4c(cc23)OCCO4)cc1, the activity change, negative = inhibition was “inactive”. With COC(=O)[C@@]1(Cc2ccc(F)cc2)[C@H]2c3cc(C(=O)N(C)C)n(CCF)c3C[C@H]2CN1C(=O)c1ccccc1 the activity change, negative = inhibition was “inactive”. In the case of CCn1c(SCC(=O)N2CCCC2)nc2c1c(=O)n(C)c(=O)n2C, the Potency is reported as inconclusive: 5.01 µM [falling, single point]. In the case of CCN1CCCC1CNc1ncnc2c1[nH]c1ccc(Cl)cc12 (centres undefined), the Potency is reported as inconclusive: 10 µM [rising, partial curve]. In the case of Cc1ccc(-c2nc(CS(=O)(=O)CC(=O)N3CCCCCC3)c(C)o2)cc1, the activity change, negative = inhibition is reported as “inactive”. In the case of CCn1c(=N)c(S(=O)(=O)c2ccc(F)cc2)cc2c(=O)n3ccccc3nc21, the Potency is reported as active: 2 µM. In the case of CCNc1ncc2nc(-c3ccccc3)c(=O)n(Cc3cccs3)c2n1, the Potency is reported as inconclusive: 2 µM [rising, full curve]. In the case of COc1ccc(NC(=O)C2CCCN2S(=O)(=O)c2ccc3c(c2)CCC(=O)N3)c(OC)c1 (centres undefined), the Potency is reported as inconclusive: 12.6 µM [rising, single point]. For CCc1nc(N2CCC(C)CC2)c2oc3ccccc3c2n1, the Potency was active: 10 µM. For CC(=O)N1c2ccccc2N(Cc2ccc(C)cc2C)C(=O)C1(C)C, the Potency was inconclusive: 12.6 µM [rising, single point]. With CCN(CC)c1ccc(NC(=O)C2CC3CCC2C3)cc1 (centres undefined) the activity change, negative = inhibition was “inactive”. For CCCCCCn1c(SCC(=O)Nc2cc(C)on2)nc2ccccc2c1=O, the activity change, negative = inhibition was “inactive”. For COc1ccccc1-c1cc(C(F)(F)F)nc(S(=O)(=O)CCCC(=O)Nc2cc(C)on2)n1, the activity change, negative = inhibition was inconclusive: -16%. For COC(=O)C1=C(C)NC(=O)NC1c1cn(-c2ccccc2)nc1-c1cccs1 (centres undefined), the activity change, negative = inhibition was “inactive”. In the case of CCCCN(Cc1cc2cc(OC)ccc2[nH]c1=O)C(=O)c1ccco1, the Potency is reported as inconclusive: 10 µM [rising, partial curve]. In the case of Cn1c(SCC(=O)Nc2ccccc2F)nnc1-c1ccc(S(=O)(=O)N2CCOCC2)cc1, the activity change, negative = inhibition is reported as “inactive”. In the case of COc1cc(-c2nc3oc4ccccc4c(=O)c3c(=O)n2Cc2ccco2)cc(OC)c1OC, the Potency is reported as active: 2.51 µM. For Cc1onc(-c2ccccc2)c1C(=O)NCCc1c[nH]c2ccccc12, the activity change, negative = inhibition was inconclusive: -12.3%. In the case of COc1cc2c(cc1OC)CN(C(=O)C1(c3ccccc3)CC1)CC2, the Potency is reported as inconclusive: 12.6 µM [rising, partial curve]. In the case of O=C(NCc1cccs1)C1CCN(c2ccc(S(=O)(=O)N3CCOCC3)cc2Cl)CC1, the Potency is reported as inconclusive: 10 µM [rising, single point]. With Cc1ccc2cc(CN(Cc3ccco3)C(=O)C3CCCCC3)c(=O)[nH]c2c1C the activity change, negative = inhibition was “inactive”. For COC(=O)[C@@]1(Cc2ccccc2)[C@H]2c3cc(C(=O)N(C)C)n(Cc4ccc(O)c(OC)c4)c3C[C@H]2CN1C(=O)c1ccccc1, the activity change, negative = inhibition was inconclusive: 5.2%. For CC(C)=CCC/C(C)=C/C=O, the activity change, negative = inhibition was “inactive”. With CCCCn1c(SCC(=O)Nc2cc(C)[nH]n2)nc2ccsc2c1=O the activity change, negative = inhibition was inconclusive: 14.1%. In the case of CC(C)C[C@@H](CC(=O)N[C@@H](CCC(=O)O)CC(=O)O)NC(=O)[C@@H]1CNCC[C@H]1NC(=O)C[C@H](CCCN)NC(=O)C[C@H](CO)NC(=O)[C@@H]1CNCC[C@H]1N, the activity change, negative = inhibition is reported as inconclusive: -13.5%. With COc1cc(-c2noc(-c3ccccc3C(=O)NCc3ccco3)n2)cc(OC)c1OC the Potency was inconclusive: 7.94 µM [rising, partial curve]. For CCCCC(CC)CNC(=O)CCS(=O)(=O)c1cccc2nonc12 (centres undefined), the activity change, negative = inhibition was inconclusive: -7.71%. For CCOC(=O)CCNC(=O)Nc1ccc2nc(C)n(Cc3cccc(Cl)c3)c(=O)c2c1, the Potency was inconclusive: 10 µM [rising, single point]. For Cn1c2ccccc2c2c(C(=O)NCc3ccco3)cn(C3CCCCC3)c(=O)c21, the Potency was inconclusive: 12.6 µM [rising, partial curve].
